Test results published in the supplement of paper PMC12067230.
The data scatter; read single values as rough.

Assay: amyloid nucleation score relative to library mode (yeast Sup35 reporter selection) (log enrichment difference); higher = more amyloid nucleation; sequences are the first 22 residues of the Bri2 peptide extended by up to 12 random residues
Conditions: random library (experiment): 1;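 active = nucleation score significantly above 0 at FDR 0.05; inactive = not significantly above 0 or absent from output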
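Also: [psi-pin-] Saccharomyces cerevisiae expressing SupN fusions, induced by 100 µM Cu2SO4, selected 7 d at 30 °C without adenine and uracil, scored by deep sequencing of output versus input.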

Sequence	amyloid nucleation score
EASNCFAIRHFENKFAVETLICDILGIWCCRKTQ	8.49
EASNCFAIRHFENKFAVETLICDIMGVRRPFMYK	inactive
EASNCFAIRHFENKFAVETLICDIPMLPMNPRIT	inactive
EASNCFAIRHFENKFAVETLICDIPMWSGADALL	inactive
EASNCFAIRHFENKFAVETLICDIRWGCRAKDGA	3.72
EASNCFAIRHFENKFAVETLICDISYLCEKFAWC	6.68
EASNCFAIRHFENKFAVETLICDIVGESGAMRVW	inactive
EASNCFAIRHFENKFAVETLICDIVGK	inactive
EASNCFAIRHFENKFAVETLICDKRQDTLTVLAV	inactive
EASNCFAIRHFENKFAVETLICDKSSPMWSWARG	inactive
EASNCFAIRHFENKFAVETLICDKWDGHPVRGRM	0
EASNCFAIRHFENKFAVETLICDKYGHNGDVSGL	0.451
EASNCFAIRHFENKFAVETLICDL	inactive
EASNCFAIRHFENKFAVETLICDLAMMRVWRDRF	inactive
EASNCFAIRHFENKFAVETLICDLCRAWGGMFSV	inactive
EASNCFAIRHFENKFAVETLICDLDSG	0.864
EASNCFAIRHFENKFAVETLICDLEFIVKWRVRM	inactive
EASNCFAIRHFENKFAVETLICDLEKGHISRTCS	inactive
EASNCFAIRHFENKFAVETLICDLEYASELVIGW	inactive
EASNCFAIRHFENKFAVETLICDLFIEP	inactive
EASNCFAIRHFENKFAVETLICDLHLWMKKRYGI	inactive
EASNCFAIRHFENKFAVETLICDLHRPVKNCVMP	inactive
EASNCFAIRHFENKFAVETLICDLIASRVTINEW	0.49
EASNCFAIRHFENKFAVETLICDLIVMLFKCDIR	inactive
EASNCFAIRHFENKFAVETLICDLLIGLLKGSEL	inactive
EASNCFAIRHFENKFAVETLICDLLKYRSNLKRK	inactive
EASNCFAIRHFENKFAVETLICDLMED	inactive

Sequence	amyloid nucleation score
EASNCFAIRHFENKFAVETLICDLMPLSWRGARR	inactive
EASNCFAIRHFENKFAVETLICDLMVGWYGLHLL	inactive
EASNCFAIRHFENKFAVETLICDLNRDESCLTLQ	inactive
EASNCFAIRHFENKFAVETLICDLRANKAGVAVE	-0.129
EASNCFAIRHFENKFAVETLICDLRDLRI	inactive
EASNCFAIRHFENKFAVETLICDLSGADGTTLPS	inactive
EASNCFAIRHFENKFAVETLICDLSLLTWACCTV	7.62
EASNCFAIRHFENKFAVETLICDLSMVLMSTKML	inactive
EASNCFAIRHFENKFAVETLICDLSWARCKAGVP	inactive
EASNCFAIRHFENKFAVETLICDLSWRLLVIDEM	inactive
EASNCFAIRHFENKFAVETLICDLTIDNLGIEHV	inactive
EASNCFAIRHFENKFAVETLICDLTQDERFPCCC	inactive
EASNCFAIRHFENKFAVETLICDLTY	inactive
EASNCFAIRHFENKFAVETLICDLVKKRGFVSHQ	inactive
EASNCFAIRHFENKFAVETLICDLVMKKF	inactive
EASNCFAIRHFENKFAVETLICDLVRLSRGGVGT	inactive
EASNCFAIRHFENKFAVETLICDLWTFNAMSMNA	inactive
EASNCFAIRHFENKFAVETLICDLYISISLLLPP	inactive
EASNCFAIRHFENKFAVETLICDLYRMCRSCDMG	inactive
EASNCFAIRHFENKFAVETLICDLYSSSIPHTHF	1.37
EASNCFAIRHFENKFAVETLICDLYYVFERSTTR	inactive
EASNCFAIRHFENKFAVETLICDM	-0.179
EASNCFAIRHFENKFAVETLICDMATLGPLSVSV	inactive
EASNCFAIRHFENKFAVETLICDMATVGWWDGGQ	inactive
EASNCFAIRHFENKFAVETLICDMCGWLRYLGRV	7.58
EASNCFAIRHFENKFAVETLICDME	inactive

Same assay, conditions: random library (experiment): 2

Sequence	amyloid nucleation score
EASNCFAIRHFENKFAVETLICDIIFGNLVLN	6.13
EASNCFAIRHFENKFAVETLICDIKPNCSRYYRS	-0.0296
EASNCFAIRHFENKFAVETLICDIKRCS	inactive
EASNCFAIRHFENKFAVETLICDILPDHPSERNA	inactive
EASNCFAIRHFENKFAVETLICDIMQQGYEVWIG	inactive
EASNCFAIRHFENKFAVETLICDIMV	inactive
EASNCFAIRHFENKFAVETLICDIMYCYEWCATT	inactive
EASNCFAIRHFENKFAVETLICDINGVPLHCVRC	inactive
EASNCFAIRHFENKFAVETLICDINVAFIVALLL	inactive
EASNCFAIRHFENKFAVETLICDIPFLHVQIYCG	3.1
EASNCFAIRHFENKFAVETLICDISQRM	inactive
EASNCFAIRHFENKFAVETLICDITFIIVFTIQC	inactive
EASNCFAIRHFENKFAVETLICDIVMLLRPRPDP	inactive
EASNCFAIRHFENKFAVETLICDIVRI	inactive
EASNCFAIRHFENKFAVETLICDIWDTWKRIVLS	inactive
EASNCFAIRHFENKFAVETLICDK	inactive
EASNCFAIRHFENKFAVETLICDKSCALEGHVW	inactive
EASNCFAIRHFENKFAVETLICDKTVNKIPDIRL	inactive
EASNCFAIRHFENKFAVETLICDLCKVS	inactive

Sequence	amyloid nucleation score
EASNCFAIRHFENKFAVETLICDLCVRGRLAEC	inactive
EASNCFAIRHFENKFAVETLICDLFLKL	inactive
EASNCFAIRHFENKFAVETLICDLGVYYFYGRSG	1.51
EASNCFAIRHFENKFAVETLICDLIYNTSPSIDP	inactive
EASNCFAIRHFENKFAVETLICDLLSRAQCSLRE	inactive
EASNCFAIRHFENKFAVETLICDLLSTLVKRTGC	inactive
EASNCFAIRHFENKFAVETLICDLPALMGESHWA	inactive
EASNCFAIRHFENKFAVETLICDLRIWLVSVRGS	inactive
EASNCFAIRHFENKFAVETLICDLSAA	inactive
EASNCFAIRHFENKFAVETLICDLSWLSECWGSD	7.12
EASNCFAIRHFENKFAVETLICDLTVICYLGNGI	7.82
EASNCFAIRHFENKFAVETLICDLV	inactive
EASNCFAIRHFENKFAVETLICDLVISPPQGSFG	inactive
EASNCFAIRHFENKFAVETLICDLWNWTCECV	6.17
EASNCFAIRHFENKFAVETLICDLYFSVSSVMGD	inactive
EASNCFAIRHFENKFAVETLICDLYGYGWSIRLF	inactive
EASNCFAIRHFENKFAVETLICDLYKFWNSSMST	inactive
EASNCFAIRHFENKFAVETLICDMAFLSDMFRGM	4.24

Same assay, conditions: random library (experiment): 3

Sequence	amyloid nucleation score
EASNCFAIRHFENKFAVETLICDIKCLLRPLQDC	inactive
EASNCFAIRHFENKFAVETLICDILVYWKMCRDV	inactive
EASNCFAIRHFENKFAVETLICDIM	9.02
EASNCFAIRHFENKFAVETLICDINA	inactive
EASNCFAIRHFENKFAVETLICDIQVNG	inactive
EASNCFAIRHFENKFAVETLICDISVYVCQGGVL	8.96
EASNCFAIRHFENKFAVETLICDIVCGLISVISR	inactive
EASNCFAIRHFENKFAVETLICDKLIASRLWRVG	0.702
EASNCFAIRHFENKFAVETLICDKRVRKLIHST	inactive
EASNCFAIRHFENKFAVETLICDKSTVEGRKIEF	inactive
EASNCFAIRHFENKFAVETLICDKWFPGDPITAC	inactive
EASNCFAIRHFENKFAVETLICDLCVCYVWSVTC	5.45
EASNCFAIRHFENKFAVETLICDLFCKGLPVETR	inactive
EASNCFAIRHFENKFAVETLICDLGITYREILNA	inactive
EASNCFAIRHFENKFAVETLICDLKGVGRIPECN	inactive
EASNCFAIRHFENKFAVETLICDLLIRSDLRRGG	1.48
EASNCFAIRHFENKFAVETLICDLLSASVAAWSG	0
EASNCFAIRHFENKFAVETLICDLMARCDGDLHG	inactive
EASNCFAIRHFENKFAVETLICDLMVYYTDEFMD	inactive
EASNCFAIRHFENKFAVETLICDLNGWPSSVSPE	inactive
EASNCFAIRHFENKFAVETLICDLNLVPCCRAKW	4.39
EASNCFAIRHFENKFAVETLICDLSRWVSRPRIW	2.28
EASNCFAIRHFENKFAVETLICDLTVSFLLWELG	inactive
EASNCFAIRHFENKFAVETLICDLVFRWRESSWR	-0.188
EASNCFAIRHFENKFAVETLICDLWSLLQLWRRW	inactive
EASNCFAIRHFENKFAVETLICDLYNDLKQTNTL	inactive
EASNCFAIRHFENKFAVETLICDMAYTKVVFGHW	-0.0441
EASNCFAIRHFENKFAVETLICDMFSDQYRAFAV	inactive
